Data on 52 compounds can be found in the supplement of paper PMC9588766.

SMILES strings stand for the structures. Where a name gives a salt, the structure may show the parent alone. ± gives the standard deviation of the averaged measurements. In all, about 2,000 compounds were measured (“cell viability relative to DMSO control (compound alone)”: median about 0.98, lowest 2% from about 0.23 on). The list shows a part of the results.

This experiment concerns PDC-DUC18828. The experiment is described as follows: cell viability relative to DMSO control (compound alone) (fraction); PDC-DUC18828 is a patient-derived cholangiocarcinoma cell line; higher = less growth inhibition. Conditions: 1 µM; 72 h. The procedure:
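Selleck Bioactive library screen in the patient-derived FGFR2-G3BP2 fusion-positive ICC cell line PDC-DUC18828 (500 cells/well). Each compound was tested at 1 uM alone, in triplicate, for 72 h. Viability was read by CellTiter-Glo and normalised to plate DMSO controls.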
The compound `CC(=O)c1c(C)c2cnc(Nc3ccc(N4CCNCC4)cn3)nc2n(C2CCCC2)c1=O` returned a cell viability of 0.757 ± 0.02.
Under `CCN1C[C@H](C)n2c(c(O)c3c(=O)n(Cc4ccc(F)c(Cl)c4)nc(C(=O)NC)c32)C1=O` stands 0.995 ± 0.047.
`CNC(=O)c1cc(Oc2ccc3nc(N[C@@H]4CCCC[C@H]4O)sc3c2)ccn1` had a cell viability of 0.988 ± 0.067.
Under `CC(C)(C)c1ccc(S(=O)(=O)/C=C/C#N)cc1` stands 0.616 ± 0.027; under `NC(=O)c1ccc(-c2nc(-c3ccccn3)c(-c3ccc4c(c3)OCO4)[nH]2)cc1`, 1.01 ± 0.042; under `Cc1cn(-c2cc(NC(=O)c3ccc(C)c(Nc4nccc(-c5cccnc5)n4)c3)cc(C(F)(F)F)c2)cn1` [Nilotinib (AMN-107)], 0.949 ± 0.034.
In the case of `C[C@@H](O[C@H]1OCCN(Cc2n[nH]c(=O)[nH]2)[C@H]1c1ccc(F)cc1)c1cc(C(F)(F)F)cc(C(F)(F)F)c1` [Aprepitant], the cell viability was 0.957 ± 0.031.
`CCCNC(=O)Nc1ccc(Oc2ncnc3cc(OC)c(OC)cc23)cc1Cl` displayed a cell viability of 0.99 ± 0.04.
For the compound `CCCN(CCC)CCc1cccc2c1CC(=O)N2` [Ropinirole HCl], the cell viability came out at 1.01 ± 0.019.
`CC(=O)O[C@H]1C(=O)[C@@]2(C)[C@H]([C@H](OC(=O)c3ccccc3)[C@]3(O)C[C@H](OC(=O)[C@H](O)[C@@H](NC(=O)c4ccccc4)c4ccccc4)C(C)=C1C3(C)C)[C@]1(OC(C)=O)CO[C@@H]1C[C@@H]2O` [Paclitaxel] gave a cell viability of 0.287 ± 0.027.
For `NC(=O)c1cccc(-c2cccc(OC(=O)NC3CCCCC3)c2)c1` the value was 1.01 ± 0.023; for `CN1CCC(Nc2nc(Nc3ccc(Oc4ccccc4)cc3)c3c(=O)[nH]cc(Br)c3n2)CC1`, 0.771 ± 0.062; for `Cn1cnc2c(F)c(Nc3ccc(Br)cc3F)c(C(=O)NOCCO)cc21`, 0.921 ± 0.038.
`C#Cc1cccc(Nc2ncnc3cc(OCCOC)c(OCCO)cc23)c1` had a cell viability of 1.05 ± 0.034.
`CC(C)C[C@H](NC(=O)[C@H](Cc1ccccc1)C[C@@H](O)[C@H](Cc1ccccc1)NC(=O)OC(C)(C)C)C(=O)N[C@@H](Cc1ccccc1)C(N)=O` gave a cell viability of 0.973 ± 0.057.
Consider `COc1cc2nc(N3CCCC3)nc(NCCCCCN3CCCC3)c2cc1OC`, for which the cell viability turned out to be 1.01 ± 0.035.
For the compound `NC(=O)c1cnccn1` [Pyrazinamide], the cell viability stood at 1.01 ± 0.02.
Under `Nc1nc(N)c(N=O)c(OCC2CCCCC2)n1` stands 0.892 ± 0.033; under `Nc1ccc(-c2ccc3ncc4ccc(=O)n(-c5cccc(C(F)(F)F)c5)c4c3c2)cn1` [Torin 2], 0.248 ± 0.0066; under `CSc1nc2cc(Cl)c(Oc3cccc(Cl)c3Cl)cc2[nH]1` [Triclabendazole], 1.03 ± 0.084.
Under `Cc1cnc(-c2ccccc2C(C)C)nc1NCc1ccc(-n2ccnn2)cc1` stands 0.968 ± 0.062; under `CCCCCCCCCCCCCCCCn1cc[n+](Cc2ccccc2)c1C`, 0.429 ± 0.033; under `CC1(C)S[C@@H]2[C@H](NC(=O)[C@H](N)c3ccccc3)C(=O)N2[C@H]1C(=O)O` [Ampicillin Trihydrate], 1.02 ± 0.075.
In turn, `CC1(C)S[C@@H]2[C@H](NC(=O)[C@H](N)c3ccccc3)C(=O)N2[C@H]1C(=O)O` [Ampicillin sodium] came in with a cell viability of 0.934 ± 0.035.
Under `Cc1ccccc1C(C(=O)NC1CCCCC1)N(C(=O)Cn1ccnc1C)c1cccc(F)c1` (configuration not stated) stands 1.04 ± 0.033.
For `O=C(O)c1cc(=O)[nH]c(=O)[nH]1` [Orotic acid (6-Carboxyuracil)] the value was 0.988 ± 0.017.
`Oc1ccc(-c2nc(-c3ccc(F)cc3)c(-c3ccncc3)[nH]2)cc1` gave a cell viability of 0.989 ± 0.016.
`O=C(Nc1ccc(S(=O)(=O)Nc2ccccc2Cl)c(Cl)c1)c1ccccn1` displayed a cell viability of 1.03 ± 0.061.
For `Cc1ccc(C(=O)Nc2ccc(CN3CCN(C)CC3)c(C(F)(F)F)c2)cc1C#Cc1cnc2[nH]ncc2c1` the value was 0.295 ± 0.0066; for `O=C(NC[C@H](O)CO)c1ccncc1Nc1ccc(I)cc1F`, 0.969 ± 0.024; for `Cc1ccc(-n2nc(C(C)(C)C)cc2NC(=O)NCc2cc(F)ccc2Oc2ccc3c(cnn3CCO)c2)cc1` [Pexmetinib (ARRY-614)], 0.847 ± 0.033.
As for `Cc1ncc([N+](=O)[O-])n1CC(C)O` (configuration not stated) [Secnidazole], the cell viability amounted to 1.05 ± 0.052.
In turn, `OCCn1cc(-c2cnc3nnn(Cc4ccc5ncccc5c4)c3n2)cn1` had a cell viability of 1.03 ± 0.062.
On to `C[C@]12CCC(=O)C=C1[C@@H]1C[C@@H]1[C@H]1[C@@H]3[C@@H]4C[C@@H]4[C@@]4(CCC(=O)O4)[C@@]3(C)CC[C@@H]12` [Drospirenone], for which the cell viability was 0.931 ± 0.019.
As to `COc1ccc2cc([C@H](C)C(=O)O)ccc2c1` [Naproxen], the cell viability worked out at 1.097 ± 0.005.
`N#Cc1cc(CN2CCC(Nc3ncnc4sc(Cl)cc34)CC2)ccc1F` returned a cell viability of 0.976 ± 0.019.
For `O=C1NC(=O)/C(=C/c2ccc3nccc(-c4ccncc4)c3c2)S1` the value was 0.991 ± 0.051.
For `CCCc1ncc(C[n+]2ccccc2C)c(N)n1` [Amprolium HCl] the value was 1.03 ± 0.017; for `OC[C@H]1OC(O)[C@H](O)[C@@H](O)[C@@H]1O` (some centres not stated) [Dextrose], 1.07 ± 0.098; for `O=C1NC(=O)C(c2ccccc2[N+](=O)[O-])=C1Nc1ccc(O)c(Cl)c1`, 1.03 ± 0.048.
For `CC(C(=O)O)c1cccc(Oc2ccccc2)c1` (configuration not stated) [Fenoprofen calcium hydrate] the value was 1.01 ± 0.047; for `CC(C(=O)O)c1cccc(Oc2ccccc2)c1` (configuration not stated) [Fenoprofen Calcium], 0.987 ± 0.073; for `COCCOc1nc(-c2ccc(Cl)c(Cl)c2)n(-c2ccc(NC(=O)CCl)cc2)n1` [MI-2 (MALT1 inhibitor)], 0.695 ± 0.067.
In turn, `OC[C@@H](O)[C@@H](O)[C@H](O)[C@H](O)CO` [D-Mannitol] displayed a cell viability of 0.984 ± 0.035.
Under `C[C@H](NCc1ccc(OCc2cccc(F)c2)cc1)C(N)=O` [Safinamide Mesylate] stands 1.06 ± 0.045; under `CC(=O)OCC(=O)NCCCOc1cccc(CN2CCCCC2)c1` [Roxatidine Acetate HCl], 0.918 ± 0.017.
As for `CCn1cc(C(=O)O)c(=O)c2cc(F)c(N3CCNCC3)nc21` [Enoxacin], the cell viability was found to be 0.951 ± 0.028.
Consider `C=C(C)[C@@H]1CC[C@]2(C(=O)O)CC[C@]3(C)[C@H](CC[C@@H]4[C@@]5(C)CC[C@H](O)C(C)(C)[C@@H]5CC[C@]43C)[C@@H]12` [Betulinic acid], for which the cell viability is 0.956 ± 0.026.
Under `C1N2CN3CN1CN(C2)C3` [Methenamine] stands 1.01 ± 0.056; under `O=C(O)C1=C[C@@H](O)[C@@H](O)[C@H](O)C1` [Shikimic Acid], 1.02 ± 0.063; under `CC(C)OC(=O)C(C(=O)OC(C)C)=C1SC=CS1` [Malotilate], 1.02 ± 0.035.
Take `CC[C@]12C=CCN3CC[C@@]4(c5cc([C@@]6(C(=O)OC)C[C@@H]7C[C@@H](C(C)(F)F)CN(Cc8c6[nH]c6ccccc86)C7)c(OC)cc5N(C)[C@H]4[C@@](O)(C(=O)OC)[C@@H]1OC(C)=O)[C@@H]32` [Vinflunine Tartrate]: the cell viability stood at 0.287 ± 0.02.
